The results in this text go back to US20120107330A1 (published 2012).

Assay [1] addresses T1, mouse TNFR1 (recombinant, R&D Systems cat no. 425-R1-050/CF, biotinylated) (mouse, UniProt P25118 22-212, biotinylated with EZ-Link NHS-LC-LC-biotin).
T1 construct: also called murine TNFR1; biotinylated mouse TNFR1
T1 sequence (looked up): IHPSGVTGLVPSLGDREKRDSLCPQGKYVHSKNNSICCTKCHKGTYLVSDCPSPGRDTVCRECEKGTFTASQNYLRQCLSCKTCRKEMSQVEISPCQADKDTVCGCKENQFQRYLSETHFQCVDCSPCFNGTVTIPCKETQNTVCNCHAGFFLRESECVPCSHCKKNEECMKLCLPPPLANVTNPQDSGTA
Nature of the assay: BIAcore, mouse TNFR1 on SA chip. An excerpt:
(§1) BIAcore was done to determine the association and dissociation rates of the different dAbs and in that way establish their binding affinity for both human and mouse TNFR1. Experiments were done using biotinylated TNFR1 (R&D Systems), of the respective species, coupled to streptavidin-coated BIAcore chips followed by injection of a concentration range of the dAbs.
A general note: Surface plasmon resonance follows binding to a sensor surface in real time, without labels.

Assay [2] deals with T2, human TNFR1 (recombinant, R&D Systems cat no. 636-R1/CF, biotinylated) (human, UniProt P19438 30-211, limits assumed, biotinylated with EZ-Link NHS-LC-LC-biotin).
T2 construct: it is not tied to the BIAcore reagent; also called p55; hTNFR1
T2 sequence (looked up): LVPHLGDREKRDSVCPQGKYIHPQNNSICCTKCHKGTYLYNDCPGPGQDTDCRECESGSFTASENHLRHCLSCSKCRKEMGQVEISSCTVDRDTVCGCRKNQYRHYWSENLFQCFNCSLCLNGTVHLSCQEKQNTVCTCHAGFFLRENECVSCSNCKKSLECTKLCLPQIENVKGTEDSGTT
Briefly: BIAcore, human TNFR1 on SA chip.
From the text: as §1

Assay [3] concerns the target T3, Cynomologus monkey TNFR1 on CYNOM-K1 cells (Cynomolgus monkey, UniProt Q2PFV5 30-455).
T3 sequence: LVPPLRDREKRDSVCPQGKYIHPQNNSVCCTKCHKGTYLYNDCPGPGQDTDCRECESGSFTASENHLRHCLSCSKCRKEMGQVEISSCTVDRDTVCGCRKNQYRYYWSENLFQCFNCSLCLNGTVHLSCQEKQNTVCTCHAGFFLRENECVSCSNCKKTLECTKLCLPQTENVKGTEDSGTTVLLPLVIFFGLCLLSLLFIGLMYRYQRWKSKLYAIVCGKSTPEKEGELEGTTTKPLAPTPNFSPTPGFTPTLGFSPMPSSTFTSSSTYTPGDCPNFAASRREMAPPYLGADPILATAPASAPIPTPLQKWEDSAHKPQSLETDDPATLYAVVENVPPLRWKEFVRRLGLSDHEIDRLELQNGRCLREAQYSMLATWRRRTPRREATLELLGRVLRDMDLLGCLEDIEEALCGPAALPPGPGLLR
Nature of the assay: cell-based or functional assay.

Assay [4] addresses T4, mouse TNFR1 on L929 cells (mouse, UniProt P25118 30-454).
T4 sequence (looked up): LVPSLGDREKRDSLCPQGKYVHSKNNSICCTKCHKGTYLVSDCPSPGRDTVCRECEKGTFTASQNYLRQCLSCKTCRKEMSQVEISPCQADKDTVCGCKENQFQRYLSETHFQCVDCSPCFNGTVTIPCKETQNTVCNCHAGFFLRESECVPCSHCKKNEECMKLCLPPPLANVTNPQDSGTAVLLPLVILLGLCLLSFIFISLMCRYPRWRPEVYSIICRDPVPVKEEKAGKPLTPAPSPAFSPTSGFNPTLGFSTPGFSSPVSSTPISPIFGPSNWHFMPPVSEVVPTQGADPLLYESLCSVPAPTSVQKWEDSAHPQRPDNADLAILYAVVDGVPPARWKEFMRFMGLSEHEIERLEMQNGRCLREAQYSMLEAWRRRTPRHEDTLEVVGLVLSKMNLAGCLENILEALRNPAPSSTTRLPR
Briefly: cell-based or functional assay.

In assay [5] the target is T5, human TNFR1 on MRC-5 cells (human, UniProt P19438 30-455).
T5 sequence (looked up): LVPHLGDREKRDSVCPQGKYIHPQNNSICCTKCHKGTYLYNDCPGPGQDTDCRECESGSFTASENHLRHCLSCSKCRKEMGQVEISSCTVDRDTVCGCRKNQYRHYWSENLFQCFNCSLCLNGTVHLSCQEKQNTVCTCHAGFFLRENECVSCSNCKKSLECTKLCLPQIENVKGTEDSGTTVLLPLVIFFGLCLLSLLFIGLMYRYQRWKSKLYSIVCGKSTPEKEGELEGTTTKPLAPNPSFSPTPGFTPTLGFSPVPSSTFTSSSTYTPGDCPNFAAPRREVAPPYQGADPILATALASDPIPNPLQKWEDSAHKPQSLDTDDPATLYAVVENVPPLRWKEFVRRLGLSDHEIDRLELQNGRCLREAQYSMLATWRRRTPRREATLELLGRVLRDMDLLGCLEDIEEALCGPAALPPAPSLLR
Nature of the assay: cell-based or functional assay.

Assay [6] has as its target T2, human TNFR1 (recombinant, R&D Systems …). Briefly: BIAcore, TNFR1 (species not given, taken as human).
Assay [7] deals with T4, mouse TNFR1 on L929 cells. Nature of the assay: cell-based or functional assay. The source holds these as a separate data set.
Assay [8] deals with T5, human TNFR1 on MRC-5 cells. Briefly: cell-based or functional assay. This is another data set of the same source.

B1: DOM1h-574-126 (other)
VH: EVQLLESGGGLVQPGGSLRLSCAASGFTFVKYSMGWVRQAPGKGLEWVSQIANTGDRRYYAH[here about 20 residues without letters]MNSLRAEDTAVYYCAIYTGRWEPFVYWGQGTLVTVSS
notes: VH dAb
By Kd is commonly meant the equilibrium constant for the complex coming apart. One may read the koff as the first-order rate constant of dissociation. For orientation: kon means the rate constant with which the complex forms. For the molecule B1, in assay [1], the Kd is 4.4 nM, the koff was found to be 0.00068 s⁻¹ and the kon amounted to 160000 M⁻¹ s⁻¹. In addition, in assay [2], the Kd is 0.21 nM, the koff turned out to be 7.9e-05 s⁻¹ and the kon was 380000 M⁻¹ s⁻¹. For the same molecule, the “Cynomologus CYNOM-K1 ND50” value in assay [3] stood at 1.2 nM. Moreover, the “Mouse L929 ND50” value in assay [4] was found to be 35 nM. Moreover, in assay [5], the “Human MRC5 ND50” value stood at 1.9 nM.

B2: DOM1h-574-180 (other)
VH: EVQLLESGGGLVQPGGSLRLSCAASGFTFVKYSMGWVRQAPGKGLEWVSQISDTADRTYYAH[here about 20 residues without letters]MNSLRAEDTAVYYCAIYTGRWVPFEYWGQGTLVTVSS
notes: VH dAb
In the case of B2, in assay [1], the Kd amounted to 2.7 nM, the koff stood at 0.00032 s⁻¹ and the kon amounted to 120000 M⁻¹ s⁻¹. In assay [2], the Kd came out at 0.15 nM, the koff turned out to be 4.1e-05 s⁻¹ and the kon was found to be 270000 M⁻¹ s⁻¹. Further, the “Mouse L929 ND50” value in assay [4] was 34 nM. Besides, the “Human MRC5 ND50” value in assay [5] amounted to 1.9 nM.

B3: DMS0136 (bispecific antibody)
chain: EVQLLESGGGLVQPGGSLRLSCAASGFTFVKYSMGWVRQAPGKGLEWVSQISDTADRTYYAH[here about 20 residues without letters]MNSLRAEDTAVYYCAIYTGRWVPFEYWGQGTLVTVSSASTDIQMTQSPSSLSASVGDRVTITCRASRPIGTTLSWYQQKPGKAPKLLILWNSRLQSGVPSRFSGSGSGTDFTLTISSLQPEDFATYYCAQAGTHPTTFGQGTKVEIKR
notes: anti-TNFR1 dAb / AlbudAb in-line fusion
Turning to B3, in assay [6], the Kd worked out at 0.3 nM, the koff came to 5.5e-05 s⁻¹ and the kon was determined as 190000 M⁻¹ s⁻¹. The “L929 ND50” value in assay [7] came to 5.4 nM. In addition, in assay [8], the “MRC5 ND50” value is 1.97 nM.
